Each structure is given as a SMILES string. Screen size: about 310,000 compounds; about 2,200 (0.71%) showed an effect of 50% or more. The effect is printed as a negative number. Some of the results follow.

human ether-à-go-go-related gene (hERG) potassium channel, sequence (Q12809 whole entry, looked up): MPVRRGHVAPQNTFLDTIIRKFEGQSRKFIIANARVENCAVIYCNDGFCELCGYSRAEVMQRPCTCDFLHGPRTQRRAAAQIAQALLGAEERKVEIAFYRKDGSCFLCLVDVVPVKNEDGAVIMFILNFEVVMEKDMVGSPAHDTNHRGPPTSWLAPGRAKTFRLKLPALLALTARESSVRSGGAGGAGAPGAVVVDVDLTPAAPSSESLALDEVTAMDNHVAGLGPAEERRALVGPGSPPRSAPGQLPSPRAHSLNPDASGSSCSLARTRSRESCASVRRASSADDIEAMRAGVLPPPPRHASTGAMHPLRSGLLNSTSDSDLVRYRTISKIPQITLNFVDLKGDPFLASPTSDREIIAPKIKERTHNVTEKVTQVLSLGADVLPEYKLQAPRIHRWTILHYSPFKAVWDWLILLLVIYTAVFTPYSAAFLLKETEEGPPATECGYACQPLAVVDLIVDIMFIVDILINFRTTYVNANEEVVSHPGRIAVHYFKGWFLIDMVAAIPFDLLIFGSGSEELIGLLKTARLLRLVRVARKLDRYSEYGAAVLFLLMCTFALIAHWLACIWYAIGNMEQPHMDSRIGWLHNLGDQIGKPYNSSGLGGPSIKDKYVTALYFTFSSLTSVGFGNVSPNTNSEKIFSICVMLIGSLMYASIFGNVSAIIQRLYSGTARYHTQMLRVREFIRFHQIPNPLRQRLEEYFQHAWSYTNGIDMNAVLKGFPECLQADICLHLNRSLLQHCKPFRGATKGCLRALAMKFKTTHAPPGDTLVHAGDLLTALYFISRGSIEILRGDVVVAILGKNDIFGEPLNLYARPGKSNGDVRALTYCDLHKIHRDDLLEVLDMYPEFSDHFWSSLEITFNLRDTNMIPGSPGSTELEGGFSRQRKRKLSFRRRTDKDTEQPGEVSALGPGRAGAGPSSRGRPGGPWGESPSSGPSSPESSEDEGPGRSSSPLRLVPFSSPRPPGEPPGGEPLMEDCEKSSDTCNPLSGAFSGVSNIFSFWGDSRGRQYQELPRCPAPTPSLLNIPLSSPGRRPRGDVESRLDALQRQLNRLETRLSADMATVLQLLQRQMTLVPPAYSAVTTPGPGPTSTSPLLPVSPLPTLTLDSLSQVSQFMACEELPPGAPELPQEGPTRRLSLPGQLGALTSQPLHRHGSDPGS

This assay addresses human ether-à-go-go-related gene (hERG) potassium channel (human, UniProt Q12809). Briefly: primary screen, population patch clamp on CHO cells stably expressing hERG.
On to `O=C(C1CC1)N1CCN(c2ccc([N+](=O)[O-])cc2)CC1`, for which the “hERG current change (%, negative = inhibition) at 1uM” value is recorded as -31.4%.

For the compound `Cc1cc(-c2ccc(C(C)C)c(S(=O)(=O)N3CCC(C)CC3)c2)on1`, the “hERG current change (%, negative = inhibition) at 1uM” value is listed as 16.7%.

Turning to `CCCCc1cc(=O)oc2cc(C)cc(OC(C)C(=O)NCc3cccnc3)c12` (stereo not drawn), the “hERG current change (%, negative = inhibition) at 1uM” value is listed as 5.33%.

`Cc1ccc(C(N)=O)cc1S(=O)(=O)Nc1cccc(C)c1C`: the “hERG current change (%, negative = inhibition) at 1uM” value is given as -0.699%.

In the case of `Cc1nc(C(=O)N2CCC(n3nccc3NC(=O)Nc3ccccc3Cl)CC2)cs1`, the “hERG current change (%, negative = inhibition) at 1uM” value is recorded as 16.7%.

For the compound `CC(C)C(=O)Nc1ccc(N2CCCC2)cc1`, the “hERG current change (%, negative = inhibition) at 1uM” value amounted to 13.3%.

For `COc1ccc(-c2cc(C(=O)N3CCN(c4ncccn4)CC3)c3ccccc3n2)cc1`, the “hERG current change (%, negative = inhibition) at 1uM” value was -0.158%.

Regarding `COc1ccc(OCC(=O)N2CCN(C(=O)c3cccc(F)c3)CC2)cc1`, the “hERG current change (%, negative = inhibition) at 1uM” value is reported as 6.42%.

As for `CCN(CC)CCNCc1cc(Cl)ccc1OCc1ccccc1F.Cl`, the “hERG current change (%, negative = inhibition) at 1uM” value is on record as -4.89%.

Regarding `CCC(CC)NC(=O)CO/N=C/c1ccc(Cl)cc1Cl`, the “hERG current change (%, negative = inhibition) at 1uM” value is 18.7%.

Consider `Cc1ccc(N(Cc2ccccc2)C(=O)c2ccc(Cl)c(S(=O)(=O)N3CCOCC3)c2)cc1`, for which the “hERG current change (%, negative = inhibition) at 1uM” value was -25.2%.

Regarding `CN(C)CCC(=O)N1c2ccccc2Sc2ccc(Cl)cc21.Cl`, the “hERG current change (%, negative = inhibition) at 1uM” value is 6.15%.

On to `CCCCOc1ccc(C(=O)NCC(=O)N2CC(C)CC(C)C2)cc1` (stereo not drawn), for which the “hERG current change (%, negative = inhibition) at 1uM” value came out at 10.2%.

`Cc1ccc(C(=O)C(C)OC(=O)Cn2[nH]c(=O)c3ccccc3c2=O)cc1C` (stereo not drawn): the “hERG current change (%, negative = inhibition) at 1uM” value is 3.63%.

`COc1ccc(N=C2NC(=O)/C(=C/c3ccco3)S2)cc1`: the “hERG current change (%, negative = inhibition) at 1uM” value came to 21.7%.

Regarding `CC1CCC(C(C)C)C(OC(=O)COC(=O)c2ccc(=O)[nH]c2)C1` (stereo not drawn), the “hERG current change (%, negative = inhibition) at 1uM” value was determined as 1.61%.

Regarding `Nc1nnc(-c2cn(-c3ccccc3)nc2-c2ccc(Cl)cc2)o1`, the “hERG current change (%, negative = inhibition) at 1uM” value was 14.8%.

For the compound `CCNc1nc(=S)nc(NC(C)C)[nH]1`, the “hERG current change (%, negative = inhibition) at 1uM” value is 14%.

Turning to `C=Cn1ccnc1CC(O)c1ccc(OC)cc1` (stereo not drawn), the “hERG current change (%, negative = inhibition) at 1uM” value was 11.8%.

As to `CC1CCN(Cc2c(C(=O)N/N=C/c3ccccc3O)nnn2-c2nonc2N)CC1`, the “hERG current change (%, negative = inhibition) at 1uM” value was 13.6%.

As for `CCCn1c2ccccc2c2nnc(SCC(=O)OCC)nc21`, the “hERG current change (%, negative = inhibition) at 1uM” value was 4.96%.

In the case of `COc1cc(/C=N/N=C2/NC(=O)C(CC(=O)O)S2)ccc1OCc1ccc(Cl)cc1` (stereo not drawn), the “hERG current change (%, negative = inhibition) at 1uM” value amounted to 9.17%.

In the case of `O=C(OCC(=O)N1CCOCC1)c1ccc(Cl)cc1[N+](=O)[O-]`, the “hERG current change (%, negative = inhibition) at 1uM” value was found to be 11.8%.

Consider `CCC(C)n1c(NC(=O)c2ccccc2)c(C#N)c2nc3ccccc3nc21` (stereo not drawn), for which the “hERG current change (%, negative = inhibition) at 1uM” value stood at 16.6%.

With `COn1c(-c2ccc(Cl)cc2)nc2ccc(Cl)cc21`, the “hERG current change (%, negative = inhibition) at 1uM” value stood at 0.437%.

With `COc1cc(OC)c(C(=O)O/N=C(\N)c2cccc(C)c2)cc1OC`, the “hERG current change (%, negative = inhibition) at 1uM” value is 13.8%.

In the case of `CC(C)(C)C(=O)Nc1ccc(Sc2ccc([N+](=O)[O-])cc2)cc1`, the “hERG current change (%, negative = inhibition) at 1uM” value amounted to 5.23%.

`O=C(NCCCCNC(=O)c1ccccc1Br)c1ccccc1Br`: the “hERG current change (%, negative = inhibition) at 1uM” value was 11.1%.

Take `Cc1ccc(C(c2nnnn2Cc2cccs2)N2CCN(Cc3ccc4c(c3)OCO4)CC2)cc1` (stereo not drawn): the “hERG current change (%, negative = inhibition) at 1uM” value is on record as -1.16%.

Turning to `CC(C)NC(=O)NC(=O)COC(=O)c1ccc(OC(F)(F)F)cc1`, the “hERG current change (%, negative = inhibition) at 1uM” value is reported as 13%.

`Cc1ccc(C(=O)N(CC(=O)NC2CCCC2)c2ccccc2Cl)s1`: the “hERG current change (%, negative = inhibition) at 1uM” value amounted to 0.85%.

With `CCCCCCCC(=O)Nc1cc(C(=O)NCc2ccc(C)cc2)ccc1N1CCC2(CC1)CC(c1ccccc1)=NO2`, the “hERG current change (%, negative = inhibition) at 1uM” value is given as 18.3%.

As to `CN(C)c1ccc(NC(=O)CSc2nnc(-c3cnccn3)n2C)cc1`, the “hERG current change (%, negative = inhibition) at 1uM” value is reported as 18.3%.

Regarding `C/C(=N\NC(=O)c1nnn(-c2nonc2N)c1-c1ccccc1)c1ccccc1O`, the “hERG current change (%, negative = inhibition) at 1uM” value is 8.96%.

`O=C(Nc1cc(C(F)(F)F)ccc1Cl)C(=O)N1CCCCC1`: the “hERG current change (%, negative = inhibition) at 1uM” value came to 0.682%.

`CCOc1ccc(N2C(=O)NC(=O)/C(=C/c3cnc(SC)nc3)C2=O)cc1`: the “hERG current change (%, negative = inhibition) at 1uM” value is 22.3%.

Regarding `Cc1ccc(Cn2ncn3c(cc4ccccc43)c2=O)cc1`, the “hERG current change (%, negative = inhibition) at 1uM” value is on record as 15.5%.

Consider `CCn1c(=S)sc2c(=O)n(CC(=O)Nc3ccccc3)c(C)nc21`, for which the “hERG current change (%, negative = inhibition) at 1uM” value was found to be 11%.

With `COCCCn1c(C)c(C(C)=O)cc(NC(=O)c2ccccc2)c1=O`, the “hERG current change (%, negative = inhibition) at 1uM” value was 14.9%.

For the compound `COc1ccc(C=O)cc1OC(=O)C1(C)Cc2ccccc2C(=O)O1` (stereo not drawn), the “hERG current change (%, negative = inhibition) at 1uM” value worked out at 10.5%.

Consider `COc1cc(-c2nnc(SCC(=O)Nc3cc(C)on3)n2C)cc(OC)c1O`, for which the “hERG current change (%, negative = inhibition) at 1uM” value stood at 0.799%.

Regarding `O=C(N/N=C/c1c(O)n(CCC2=CCCCC2)c(=O)[nH]c1=O)c1ccccc1`, the “hERG current change (%, negative = inhibition) at 1uM” value was determined as 18.9%.

As for `COc1cc(O)c(C(CCN2CCCC(C)C2)c2ccc3c(c2)OCO3)c(OC)c1` (stereo not drawn), the “hERG current change (%, negative = inhibition) at 1uM” value is given as -84.1%.

As for `C#C[C@]1(O)CC[C@H]2[C@@H]3CCc4cc(O)ccc4[C@H]3CC[C@@]21C`, the “hERG current change (%, negative = inhibition) at 1uM” value is on record as 18%.

With `CCO[C@H]1OC(C(N)=O)=C[C@@H](C2CC2)[C@@H]1CCCO`, the “hERG current change (%, negative = inhibition) at 1uM” value worked out at 14.3%.

`Cc1ccc2c(CN3CC(C)CC(C)C3)cc(=O)oc2c1` (stereo not drawn): the “hERG current change (%, negative = inhibition) at 1uM” value was 8.17%.

For `Cc1nc2nc(-c3ccccc3)nn2c(C)c1Cl`, the “hERG current change (%, negative = inhibition) at 1uM” value is on record as 6.4%.

Regarding `COc1ccc(N2CC(C(=O)Nc3nccs3)CC2=O)cc1` (stereo not drawn), the “hERG current change (%, negative = inhibition) at 1uM” value is listed as 13.7%.

As to `CC(C)[C@H](N)C(=O)NCC1CCC(C(=O)N[C@@H](Cc2ccccc2)C(=O)O)CC1.Cl` (stereo partly drawn), the “hERG current change (%, negative = inhibition) at 1uM” value is 10.8%.

For `CCc1cc2c(=O)c(-c3nc(C)cs3)coc2cc1O`, the “hERG current change (%, negative = inhibition) at 1uM” value is given as 11%.

With `C=CCSc1nnc(NC(=O)CSc2ccccn2)s1`, the “hERG current change (%, negative = inhibition) at 1uM” value turned out to be 2.33%.

Regarding `Cc1cc(C(=O)OC(C(=O)Nc2cccc(C(F)(F)F)c2)c2ccccc2)c(C)o1` (stereo not drawn), the “hERG current change (%, negative = inhibition) at 1uM” value is given as 10.7%.

On to `CC(NC(=O)c1ccccc1F)c1cccc2ccccc12` (stereo not drawn), for which the “hERG current change (%, negative = inhibition) at 1uM” value is 12.5%.

With `COc1ccc(-c2cn3cccnc3n2)cc1F`, the “hERG current change (%, negative = inhibition) at 1uM” value was found to be 14%.

Regarding `N#Cc1ccc(CSc2nnc(COc3ccccc3)n2-c2ccccc2)cc1`, the “hERG current change (%, negative = inhibition) at 1uM” value is reported as -2.87%.

For `CCCCSc1nnc(-c2ccccc2N)c(=O)[nH]1`, the “hERG current change (%, negative = inhibition) at 1uM” value is reported as 7.89%.

As for `O=C(NC(=S)Nc1ccccc1Br)C1CCC1`, the “hERG current change (%, negative = inhibition) at 1uM” value is on record as -4.42%.

These data come from article PMC4336329 (PLoS ONE, 2015).
